Hit rate of the full screen: of about 340,000 compounds, about 6,900 (2%) were called active. No stated cut-off is given here; in the data, active means inhibition above about 30%; inactive means below that, where a call was filed. Only a part is listed here, and it is no random draw. The source gives no active or inactive call for entries shown without one.
target: D(2) dopamine receptor (Homo sapiens) (UniProt P14416); assay: HTS Assay for Allosteric Antagonists of the Human D2 Dopamine Receptor: Primary Screen for Antagonists; details: HEK293 TREx D2 cells, calcium flux, dopamine EC80; at 10 µM; stronger effect = higher value; further: 0% is about no effect
Sequence of UniProt P14416 (P14416 whole entry, looked up): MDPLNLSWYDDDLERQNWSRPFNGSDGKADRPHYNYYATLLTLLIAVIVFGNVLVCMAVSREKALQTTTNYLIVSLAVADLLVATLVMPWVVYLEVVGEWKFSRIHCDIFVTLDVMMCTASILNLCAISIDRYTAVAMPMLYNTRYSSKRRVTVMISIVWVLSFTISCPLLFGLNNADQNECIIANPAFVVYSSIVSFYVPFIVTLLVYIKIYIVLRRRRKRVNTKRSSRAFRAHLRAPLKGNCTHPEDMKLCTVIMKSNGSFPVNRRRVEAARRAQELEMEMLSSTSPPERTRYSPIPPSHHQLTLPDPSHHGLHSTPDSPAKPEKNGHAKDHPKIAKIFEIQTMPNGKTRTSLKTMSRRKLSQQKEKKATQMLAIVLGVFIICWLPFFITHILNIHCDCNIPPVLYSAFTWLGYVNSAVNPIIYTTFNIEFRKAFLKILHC
Procedure, shortened: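 Read-out: kinetic calcium fluorescence (1 cycle/s) in inducible HEK293 T-REx D2 cells after an EC80 dopamine addition that followed 180 s compound preincubation. Loss of the dopamine response indicates antagonism.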

Compound	inhibition
COc1ccc(CNC(=O)c2cccc(N3CCCS3(=O)=O)c2)cc1OC	27.5%
CCC(=O)c1ccc(OCC(O)CN2CCN(c3ccc(F)cc3)CC2)cc1 (configuration not stated)	active: 30.6%
Cn1cc(S(=O)(=O)c2cccc(Cl)c2)c(=O)c2cc(F)c(N3CCN(c4ccc(F)cc4)CC3)cc21	-2.23%
Cc1ccc(-c2noc(CNS(=O)(=O)c3ccc(F)cc3)n2)cc1	-14%
CCc1ccc(Nc2nn(-c3ccc(OC(F)(F)F)cc3)nc2C(C)=O)cc1	-11.2%
COc1ccccc1N1CCN(C(=O)CN2C(=O)COc3ccc(S(=O)(=O)N4CCCCCC4)cc32)CC1	0.766%
CCN(CC)c1ccc(NC(=O)c2cnc3c(-c4ccccc4)c(C)nn3c2C)c(C)c1	2.09%
Cc1c(NC(=O)c2cc(-c3ccc(F)cc3)on2)c(=O)n(-c2ccccc2)n1C	-8.91%
Cc1nnc(N2CCN(C(=O)NC(C)C)CC2)c2nn(-c3ccccc3)c(C)c12	6.93%
Cc1cc(-c2nc3ncccc3o2)ccc1NC(=O)COc1ccccc1C	-6.52%
CCOC(=O)c1ccccc1NC(=O)CSc1ccc(-c2cccs2)nn1	5.58%
O=c1c2oc3ccccc3c2n(Cc2cccc(Cl)c2)c(=O)n1Cc1ccco1	3.47%
Cc1ccc2occ(CC(=O)N(Cc3ccc(Cl)cc3)C3CCS(=O)(=O)C3)c2c1 (configuration not stated)	-4.41%
FC(F)(F)c1ccccc1CN1CCN(C2CCCCCC2)CC1	active: 43.8%
O=S(=O)(Nc1cc(F)ccc1F)c1ccc2[nH]c3c(c2c1)CCCC3	11.6%
NS(=O)(=O)c1ccc(CCNc2nccn(-c3cccc(C(F)(F)F)c3)c2=O)cc1	4.12%
CSc1nc2c(c(=O)[nH]1)C(c1cccc(F)c1F)CC(=O)N2 (configuration not stated)	1.3%
CC(C)(C)C(=O)Nc1ccc2nc(SCC(=O)N3CCOCC3)sc2c1	8.05%
C=CCN(c1ccc(C(=O)Nc2cccc([N+](=O)[O-])c2)cc1)S(C)(=O)=O	active: 37.2%
CCCCN(CCCC)CCNC(=O)Cn1nc(C)n2c(cc3sccc32)c1=O	-11.5%
COc1cccc(CNC(=O)c2ccc3c(c2)c(C)c(C)n3Cc2ccccc2)c1OC	9.51%

Compound	inhibition
CC(C)c1ccc(NC(=O)CS(=O)(=O)c2cccc3nsnc23)cc1	9.13%
COc1ccc(NS(=O)(=O)c2cc(Br)cc3c2N(C(=O)C2CC2)CC3)cc1OC	-3.49%
COc1ccc(CNC(=O)CN2C(=O)COc3ccc(S(=O)(=O)Nc4ccccc4)cc32)cc1	-0.0687%
CCOC(=O)c1cc2c(=O)n3ccccc3nc2n(C(C)C)c1=NC(=O)c1cc2ccccc2o1	-2.03%
O=C(Nc1ccc(F)c(F)c1)c1cc(S(=O)(=O)NC2CCCCCC2)ccc1F	9.65%
CCc1ccc(C(=O)c2cn(CC(=O)NC3CCCCC3)c3nc(C)ccc3c2=O)cc1	-4.13%
O=C(c1ccccc1)n1nc(-c2ccccc2)nc1NCc1ccc(F)cc1	-0.289%
COc1ccc(-n2nc(C(=O)N3CCCC(C)C3)c3c4ccccc4n(C)c3c2=O)cc1 (configuration not stated)	-9.16%
CC(=O)N1CCC(C(=O)NCCOc2cccc(C)c2)CC1	active: 34.6%
Cn1c2ccccc2c2c(C(=O)N3CCN(c4ccccn4)CC3)cn(C3CCCC3)c(=O)c21	active: 31.1%
COc1ccc(-c2cc(C(F)(F)F)nc(S(C)(=O)=O)n2)cc1	-6.16%
CCOC(=O)c1sc2ccccc2c1S(=O)(=O)Nc1ccc(CC)cc1	-17.4%
CCOc1ccc(N2CC(NC(=O)/C=C\c3ccc4c(c3)OCO4)CC2=O)cc1 (configuration not stated)	-2.02%
COc1ccc(-n2ccnc(NCc3ccccc3OC)c2=O)cc1	4.08%
CCCNC(=S)NC1CC2CCCC(C1)N2Cc1ccc(F)cc1 (configuration not stated)	active: 80.6%
O=C(NCCn1cc(SCc2ccccc2Cl)c2ccccc21)c1cccs1	-2.71%
O=C(Nc1ccccc1Cl)C1CCN(c2nc3ccccc3nc2C(F)(F)F)CC1	-2.6%
Cn1c(=O)c2c(-c3cccc(Br)c3)n(C(C)(C)CO)cc2n(C)c1=O	0.7%
CCC(C(=O)NCc1ccco1)n1nc(C)c2c(C)n(-c3ccc(C)cc3)nc2c1=O (configuration not stated)	0.424%
Cc1cccc(C(=O)NCC(=O)OCc2cc(=O)n3nc(CC(C)C)sc3n2)c1	-8.33%
CN(C)c1ccc(CNC(=O)c2cccc(NC(=O)N3CCSc4ncccc43)c2)cc1	-1.17%

Compound	inhibition
COc1cccc(C(=O)N2CCN(CCc3ccncc3)CC2)c1	-9.26%
O=C1N(Cc2ccccc2)c2ccc(Cl)cc2C1(O)c1c[nH]c2ccccc12 (configuration not stated)	-1.82%
Cc1ccc(NS(=O)(=O)c2ccc3c(c2)n(C)c(=O)n3C)cc1C	1.23%
Cc1cc2nc(-c3ccc(OCc4ccccc4Cl)cc3)cc(C(F)(F)F)n2n1	7.42%
COc1ccccc1NC(=O)Cn1c(SCC(=O)N(C)c2ccccc2)nc2ccccc21	-9.09%
Cc1ccc(S(=O)(=O)NC2(C(F)(F)F)NC(=O)N(CCc3ccccc3)C2=O)cc1 (configuration not stated)	0.736%
COc1cccc2c1cc1c(=O)n(CC(=O)N3CCN(c4ccc(Cl)cc4)CC3)nc(C)n12	6.64%
Fc1ccc(Nc2ncnc3onc(-c4cccc(Cl)c4)c23)c(F)c1	14.2%
CCc1ccccc1NC(c1nnc(-c2cccc(F)c2)o1)c1ccc(F)cc1Cl (configuration not stated)	2.39%
Cc1ccc2scc(N3CCc4ccccc4C3)c(=O)c2c1	13.6%
COc1cc(OC)cc(-c2nc3nc(C)c(CCC(=O)Nc4ccc(C)c(C)c4)c(C)n3n2)c1	0.0014%
Cc1ccc(C)c(N2CCN(C(=O)Cn3ncc4c(=O)oc5ccccc5c43)CC2)c1	-15.3%
CCN1CCN(Cc2nc3cc(NC(=O)c4cc(OC)c(OC)c(OC)c4)ccc3n2CC)CC1	-8.41%
Cc1ccc(CNC(=O)N2CCC(CN3CCC(C)CC3)CC2)cc1	-10.1%
COc1ccc(S(=O)(=O)n2nc(-c3ccco3)nc2NCc2ccc(N(C)C)cc2)cc1	7.67%
COc1ccc(S(=O)(=O)c2cn(CC(=O)Nc3cc(C)ccc3C)c3ccccc3c2=O)cc1	-1.57%
CCC1CN(C(=O)NCc2ccc(C)cc2)c2cc(Cl)ccc2O1 (configuration not stated)	18.1%
O=[N+]([O-])c1cccc(-c2ccc(CN3CCCCC3)o2)c1	active: 80.7%
CC(=O)c1ccc(NC(=O)Cn2cnc3nc4c(cc3c2=O)CC(C)CC4)cc1 (configuration not stated)	-14.6%
CCOc1cccc(C2c3[nH]c4ccccc4c3CCN2C(=O)c2ccccc2F)c1 (configuration not stated)	0.796%
